# The campaign covered roughly 420,000 compounds. About 50,000 (12%) were called active. Inconclusive results, whose numbers are uncertain, are shown with a selection of clear calls. Calls follow the shape of the dose curve; as a rule, active = well fitted inhibition curve with a large enough effect; inconclusive = small, poorly fitted or top-dose-only effect; inactive = flat fitted curve, though single readings scatter. Potencies of inconclusive entries are left out as doubtful fits.
# Assay: qHTS for Inhibitors of human tyrosyl-DNA phosphodiesterase 1 (TDP1): qHTS in cells in presence of CPT; also: nearly all actives have a fitted effect of over 55% in size
# Conditions: chicken DT40 Tdp1-/-;hTDP1 cells + 20 nM CPT, ATP luminescence, 48 h; activity change, negative = growth inhibition: at 46.2 µM (top of the series) unless noted
# Outline: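 Chicken DT40 Tdp1-/- cells stably complemented with human TDP1 were seeded at 400 cells/well in medium containing 20 nM camptothecin, exposed to pin-transferred compounds, and grown at 37 °C for at least 48 hr. Viability was read as ATP luminescence.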
# % is scaled to controls: 0 for no effect and ±100 for the full control effect; potency is read from the fitted curve at half-maximal effect; tags tell the direction and shape of the fitted curve.
Structure (SMILES),Potency,"activity change, negative = growth inhibition"
Cc1ccc2c(c1)sc1nc(=O)n(-c3ccccc3)c(=O)n12,"inconclusive [inhibitor, partial curve, poor fit]",–
Cc1cc2c(cc1C)N(C(=O)CN1C(=O)c3ccccc3C1=O)C(C)(C)c1ssc(=S)c1-2,"inconclusive [inhibitor, single point]",–
COc1ccc(C(=O)NNC(=S)NC(=O)/C=C/c2cccs2)cc1,"inconclusive [inhibitor, single point]",–
COc1ccc(-c2n[nH]c(C(F)(F)F)c2-c2cc3ccccc3o2)c(O)c1,active: 13 µM,–
COc1cc(CN2CCN(Cc3c[nH]c4ccccc34)CC2CCO)cc(OC)c1 (stereo not drawn),active: 13 µM,–
C=CCn1c(SCc2ccc([N+](=O)[O-])cc2)nnc1C(C)NC(=O)c1ccccc1 (stereo not drawn),"inconclusive [inhibitor, single point]",–
CC(C)CCN1C(=O)CSCC1(C)C(=O)NC(C)C (stereo not drawn),–,inactive: -0.646%
CCOC(=O)C1CN(S(=O)(=O)c2ccc(C)cc2)c2cc(S(=O)(=O)CC)ccc2O1 (stereo not drawn),–,inactive: -3.24%
CC(C)c1ccc(NC2CCCN(C(=O)CCN3CCCO3)C2)cc1 (stereo not drawn),"inconclusive [inhibitor, partial curve]",–
Cc1ccc(-c2nnc(C3CCN(S(=O)(=O)c4ccc(C)c(C)c4)CC3)o2)cc1,"inconclusive [inhibitor, single point]",–
COC(=O)c1ccc(NC(=O)c2nc(S(=O)(=O)Cc3ccccc3F)ncc2Cl)cc1,active: 0.708 µM,–
Cc1ccc(NC(=O)CN2C(=O)S/C(=C/c3ccncc3)C2=O)cc1,active: 16.4 µM,–
CC(=O)c1cc(C#N)c(N2CCCCC2)nc1C,–,inactive: -24.1%
CCOC(=O)[C@]12CCC=C1N(Cc1ccc(Cl)cc1Cl)C(=O)[C@H](CC(=O)N1CCC(c3ccccc3)CC1)C2,"inconclusive [inhibitor, single point]",–
CN(CC(=O)Nc1cccc(F)c1)CC(=O)Nc1ccccc1Oc1ccccc1,"inconclusive [inhibitor, single point]",–
COc1ccc(Cl)cc1-c1nc(SCC(=O)NCCN2C(=O)CSC2=O)n[nH]1,–,inactive: -27.4%
CCC1(c2ccccc2)NC(=O)N(CC(=O)N2CC(=O)Nc3ccccc32)C1=O (stereo not drawn),–,inactive: 20.2%
CN(C(=O)c1cccc(NC(=O)Cc2ccc(NC(=O)C3CCN(C(=O)C4CCCCC4)CC3)cc2)c1)C1CCCC1,"inconclusive [inhibitor, single point]",–
COc1ccc(NC(=O)CC2C(=O)N(c3ccc(F)cc3)C(=O)N2Cc2ccco2)cc1 (stereo not drawn),"inconclusive [inhibitor, single point]",–
Cc1ccccc1CN1C(=O)c2ccccc2Sc2ccc(C(=O)NC(C)c3ccccc3)cc21 (stereo not drawn),"inconclusive [inhibitor, single point]",–
CCCCCCCCCCCCC[N+](C)(C)Cc1ccccc1,active: 0.651 µM,–
CC(=O)c1cccc(NC(=O)C2CCCN2S(=O)(=O)c2cccc3nsnc23)c1 (stereo not drawn),–,inactive: 9.59%
COc1ccc(OC)c(NS(=O)(=O)c2ccc(-c3coc(C)n3)cc2)c1,–,inconclusive: -35.7% [inhibitor]
O=C(NCc1ccc(F)cc1)c1cc2c(=O)n3ccccc3nc2s1,"inconclusive [inhibitor, single point]",–
Cc1ccc(CNC(=O)Cn2c(=O)n(-c3ccc(Cl)cc3)c(=O)c3c(C)c(C)sc32)cc1,–,inactive: -7.76%

Structure (SMILES),Potency,"activity change, negative = growth inhibition"
O=C(NCc1ccccc1)c1nn(-c2ccccc2)nc1CO,–,inactive: -28%
COc1ccc(CCNC(=O)c2nc3ncccn3n2)cc1OC,"inconclusive [inhibitor, partial curve]",–
Cc1ccc(N2C(=O)CCSC23C(=O)N(Cc2ccccc2)c2ccccc23)cc1F (stereo not drawn),active: 20.6 µM,–
Cc1ccc(OCc2cc(C(=O)N3CCN(C)C[C@@H]3c3ccccc3)no2)cc1C,"inconclusive [inhibitor, single point]",–
CC(NS(=O)(=O)c1ccc(NC(=O)N2CCCCC2)cc1)c1ccccc1 (stereo not drawn),–,inactive: -29.3%
CN1C(=O)c2cccc3c(Cl)ccc(c23)C1=O,–,inactive: -5.58%
CCN(CC)S(=O)(=O)N1CCC(C(=O)NCC2COc3ccccc3O2)CC1 (stereo not drawn),"inconclusive [inhibitor, single point]",–
Cc1ccc(CSc2nc3c([nH]c4ccccc43)c(=O)n2C)cc1,"inconclusive [inhibitor, full curve]",–
Cc1cc(Nc2ccc(F)cc2)n2c(nc3ccccc32)c1C#N,"inconclusive [inhibitor, partial curve]",–
COC(=O)c1cc(C(=O)c2ccc(C(C)(C)C)cc2)c[nH]1,"inconclusive [inhibitor, single point]",–
COc1cc(Nc2ncc3c(n2)CCN(Cc2cc(Br)cs2)C3)cc(OC)c1,active: 16.4 µM,–
COC(=O)c1ccccc1NC(=O)c1ccc2c(c1)CCN2S(C)(=O)=O,"inconclusive [inhibitor, partial curve, poor fit]",–
CC(Nc1ccc(S(=O)(=O)N2CCN(C)CC2)cc1[N+](=O)[O-])c1ccccc1 (stereo not drawn),active: 16.4 µM,–
CCCCN=c1scc(-c2ccc3c(c2)NC(=O)CO3)n1N=C1CCCC1,active: 13 µM,–
Cc1sc(NC(=O)Cc2ccc3c(c2)OCO3)nc1-c1ccc2c(c1)CCN2C(=O)c1ccccc1F,active: 18.4 µM,–
CCn1cc(CN(C)C(=O)CSc2nc(-c3ccco3)cc(C(F)(F)F)n2)c(C)n1,"inconclusive [inhibitor, single point]",–
Oc1cccc(-c2nc3ccc4ccccc4c3c3c2CCC3)c1,"inconclusive [inhibitor, single point]",–
COC(=O)c1cc(C(=O)OCC(=O)NC2CCS(=O)(=O)C2)cc([N+](=O)[O-])c1 (stereo not drawn),–,inactive: 0.284%
CCNC(=O)C1CC(=O)OC12CCCCC2 (stereo not drawn),"inconclusive [inhibitor, partial curve]",–
Cc1occc1C(=O)Nc1ccc(OCc2ccccc2)cc1,–,inactive: -13.9%
CCOC(=O)C1CCCN(CCC(=O)Nc2ccc(Br)cc2)C1 (stereo not drawn),"inconclusive [inhibitor, partial curve]",–
O=[N+]([O-])c1ccc(C[n+]2cc(-c3ccccc3)n3c2CCCCC3)cc1,"inconclusive [inhibitor, single point]",–
COc1ccccc1CNC(=O)c1ccc2c(c1)nc(C)n2-c1ccccc1OC,"inconclusive [inhibitor, single point]",–
Cc1ccccc1NC(=O)CSc1nnc2ccc(-c3ccncc3)nn12,"inconclusive [inhibitor, partial curve]",–
CCCc1nnc(NC(=O)CCC(=O)NCc2ccc(OC)cc2)s1,–,inactive: 11.2%

Structure (SMILES),Potency,"activity change, negative = growth inhibition"
CSc1nc2[nH]ncc2c(=O)n1-c1ccccc1,"inconclusive [inhibitor, partial curve, poor fit]",–
Cc1ccc(Cl)cc1Nc1nc(-c2sc(NC(=O)c3ccco3)nc2C)cs1,"inconclusive [inhibitor, single point]",–
CCOC(=O)CNC(=O)c1cccnc1Oc1ccc(Cl)cc1,–,inactive: 6.8%
O=Cc1ccccc1-n1cccn1,–,inactive: 17.4%
COc1ccc(NC(=O)c2cccn2-c2nnc(N3CCCCC3)s2)cc1Cl,"inconclusive [inhibitor, single point]",–
CC1CCc2c(nc3ncnn3c2Nc2ccc(OC(F)(F)F)cc2)C1 (stereo not drawn),"inconclusive [inhibitor, partial curve]",–
O=C(Nc1c(-c2cccs2)nc2ccccn12)c1ccccc1F,–,inconclusive: -30.4% [inhibitor]
COc1ccccc1NC(=O)CN1CCCN(S(=O)(=O)c2ccc(Br)cc2)CC1,"inconclusive [inhibitor, single point]",–
CCOC(=O)C1CCN(Cc2nnc(-c3ccccc3C)o2)CC1,–,inactive: -14.7%
O=C(CCCc1ccccc1)Nc1ccnn1C1CCN(Cc2ccccc2F)CC1,active: 23.1 µM,–
CCOC(=O)c1c(NC(=O)COC(=O)c2cc(OC)c(OC)cc2[N+](=O)[O-])sc(C)c1C,–,inactive: -22.3%
CCOc1ccc(NC(=O)Cn2c(C)cc3ccccc3c2=O)cc1,–,inactive: -8.86%
Cc1ccc(S(=O)(=O)NCC(=O)OCC(=O)N2C(C)CCCC2C)cc1 (stereo not drawn),–,inactive: -0.0508%
Clc1ccc(-c2noc3c2-c2nc(Cc4cccc5ccccc45)sc2CC3)cc1,–,inactive: 2.24%
Cc1ccc(NC(=O)Cn2c(=O)n(CCCCC(=O)NCc3ccccc3Cl)c(=O)c3ccccc32)cc1C,"inconclusive [inhibitor, single point]",–
Cc1ccccc1-c1csc(C(C)(O)c2ccc(F)c(F)c2)n1 (stereo not drawn),"inconclusive [inhibitor, single point]",–
Cc1ccccc1Nc1nnc(SCC(=O)c2c(N)n(C)c(=O)n(C)c2=O)s1,–,inactive: -7.44%
N#C/C(=C\C1=C(N2CCOCC2)C(=C\c2ccc(Cl)cc2)/CC1)C(=O)Nc1ccccc1F,active: 16.4 µM,–
COc1cccc(C(=O)Nc2cccc3ccccc23)c1OC,"inconclusive [inhibitor, single point]",–
O=C(CNS(=O)(=O)c1ccc2ccccc2c1)Nc1ccc(F)c(F)c1F,–,inactive: 3.97%
COc1ccc(C(CCN)c2ccc3c(c2)OCO3)cc1 (stereo not drawn),"inconclusive [inhibitor, single point]",–
CCOC(=O)c1c(NC(=O)CSc2nnnn2-c2ccc3c(c2)OCO3)sc(C)c1C,–,inconclusive: -30.8% [inhibitor]
COc1cc(C(=O)NNC(=S)NC(=O)/C=C/c2ccccc2)cc(OC)c1OC,active: 16.4 µM,–

# Source: PubChem BioAssay AID686979 (National Center for Advancing Translational Sciences (NCATS), 2013)
